According to article PMC4336329 (PLoS ONE, 2015):
Among all 310,000 compounds or so, about 2,200 (0.71%) showed an effect of 50% or more. The effect is printed as a negative number. The list shows a part of the results.

molecular target: human ether-à-go-go-related gene (hERG) potassium channel (human, UniProt Q12809); assay: primary screen, population patch clamp on CHO cells stably expressing hERG
Sequence (Q12809 whole entry, looked up): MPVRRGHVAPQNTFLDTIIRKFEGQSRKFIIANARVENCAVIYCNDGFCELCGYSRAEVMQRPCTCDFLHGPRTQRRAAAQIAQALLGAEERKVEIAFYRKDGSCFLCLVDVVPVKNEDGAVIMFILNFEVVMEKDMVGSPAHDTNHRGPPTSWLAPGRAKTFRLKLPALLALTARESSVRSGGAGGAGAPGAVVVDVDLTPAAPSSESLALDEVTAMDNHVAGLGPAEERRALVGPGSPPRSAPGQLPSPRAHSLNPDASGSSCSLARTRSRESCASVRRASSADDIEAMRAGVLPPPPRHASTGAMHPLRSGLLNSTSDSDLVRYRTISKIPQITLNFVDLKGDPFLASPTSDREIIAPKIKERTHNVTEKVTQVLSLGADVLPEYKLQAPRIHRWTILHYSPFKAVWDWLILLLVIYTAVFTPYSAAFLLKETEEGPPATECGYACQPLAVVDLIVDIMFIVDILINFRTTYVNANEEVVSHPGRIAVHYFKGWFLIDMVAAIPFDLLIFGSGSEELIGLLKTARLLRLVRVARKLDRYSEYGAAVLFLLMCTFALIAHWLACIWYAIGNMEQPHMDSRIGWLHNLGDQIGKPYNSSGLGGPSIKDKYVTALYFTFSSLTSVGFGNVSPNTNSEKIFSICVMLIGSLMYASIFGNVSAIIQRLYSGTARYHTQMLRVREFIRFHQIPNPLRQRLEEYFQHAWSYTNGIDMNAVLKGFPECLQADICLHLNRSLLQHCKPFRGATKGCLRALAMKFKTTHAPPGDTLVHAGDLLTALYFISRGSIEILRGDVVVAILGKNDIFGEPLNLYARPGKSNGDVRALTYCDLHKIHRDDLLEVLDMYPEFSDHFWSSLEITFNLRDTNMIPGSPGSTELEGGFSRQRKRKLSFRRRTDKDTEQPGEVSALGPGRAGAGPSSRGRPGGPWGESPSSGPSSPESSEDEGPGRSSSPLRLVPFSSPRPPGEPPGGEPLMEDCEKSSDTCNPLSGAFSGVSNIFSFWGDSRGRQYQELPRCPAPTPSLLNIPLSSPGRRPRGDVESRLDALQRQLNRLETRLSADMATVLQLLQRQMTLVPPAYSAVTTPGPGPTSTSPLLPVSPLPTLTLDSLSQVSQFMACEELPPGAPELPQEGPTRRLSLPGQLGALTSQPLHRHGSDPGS

Compound | hERG current change (%, negative = inhibition) at 1uM [%]
COc1cccc(C(=O)OC(C)C(=O)Nc2ccc3c(c2)OCO3)c1 (stereo not drawn) | 1.8
COc1ccccc1C(=O)OCC(=O)Nc1ccc(OC(F)F)cc1 | 11
COc1ccc(/C=N/n2c(-c3n[nH]c4c3CCC4)n[nH]c2=S)cc1 | 19.8
COc1ccccc1NC(=O)COC(=O)c1c(C)nn(-c2ccccc2)c1C | -4.11
Brc1ccc(-c2ncc3ccccn23)cc1 | 14.2
O=C(Nc1ccc(S(=O)(=O)N2CCOCC2)cc1)c1ccc([N+](=O)[O-])cc1Cl | 8.2
CC(=O)Nc1ccc(OC(=O)Cc2ccc(Cl)cc2)cc1 | 9.31
Cc1cccc(N2CCN(C(=O)c3ccccc3NC(=O)C3=CSCCO3)CC2C)c1 (stereo not drawn) | -0.767
Cc1ccc(C(=O)N/C(=C/C=C\c2ccccc2)C(=O)NCc2ccco2)cc1 | -1.93
COC(=O)c1sccc1S(=O)(=O)Nc1ccc(C)cc1 | 17.6
CSc1ccccc1C(=O)Nc1ncc(C)s1 | 12.7
COc1ccc(-n2ncc3c2CC(C)(C)CC3NC(=O)CN2CCOC2=O)cc1 (stereo not drawn) | -4.4
COc1cc(/C=C(/NC(=O)c2ccccc2)C(=O)N2CCOCC2)c([N+](=O)[O-])cc1OC | -1.64
O=C(NCCC1=CCCCC1)C1CCN(S(=O)(=O)c2cccc3nonc23)CC1 | 9.83
CCC(CC)C(=O)Nc1ccc(S(=O)(=O)Nc2nccs2)cc1 | 11.1
C=C(C)CNC(=O)CCc1nnc(C2(c3ccc(Cl)cc3)CCC2)o1 | 12.3
CCCCNC(=O)Cc1cc(=O)[nH]c(=O)[nH]1 | 5.81
COc1ccc2ccccc2c1/C=N/N1C(=O)CSC1=S | 16.1
CCCCN(CC)CCNC(=O)c1cc2c(-c3ccc(Cl)cc3)nn(C)c2s1 | -33.2
N#CCCN(C(=O)Nc1ccc(Cl)c(Cl)c1)c1ccccc1 | 3.6
Nc1ccc(N2CCN(c3ccc(F)cc3)CC2)cc1 | 13.2
Cc1cc2c(NC(=O)Nc3ccc(F)cc3)cccc2nn1 | 14.9
COc1ccccc1CNC(=O)C1CCC(CNc2c(N3CCC(C)CC3)c(=O)c2=O)CC1 (stereo not drawn) | 10.8
Cc1cc(CNC(=O)[C@H]2C[C@@H]2[C@H](NP(=O)(c2ccccc2)c2ccccc2)c2ccccc2)nn1C | 0.461
Cc1ccc(C(=O)C2=C(O)C(=O)N(CCCN3CCOCC3)C23C(=O)N(C)c2ccccc23)o1 (stereo not drawn) | 22.9
CCCCOc1ccc(/C=C(\C#N)C(=O)NC2CC2)cc1 | 8.4
COc1cc(NS(=O)(=O)c2ccc(NC(=O)COc3ccccc3Cl)cc2)nc(OC)n1 | 4.62

Compound | hERG current change (%, negative = inhibition) at 1uM [%]
COc1cc2c(cc1OC)C(C(=O)NC(C)C)C1CCCCN1C2=O (stereo not drawn) | 6.44
CCN(C(=O)Cc1c(C(=O)O)n(C)c2ccccc12)c1ccc(F)cc1 | 15.8
CC1(C)SC(=S)N(/N=C/c2ccccc2O)C1N(O)C(=O)Nc1ccccc1 (stereo not drawn) | 10.4
COCCOC(=O)C1=C(C)NC2=C(C(=O)CC(C)(C)C2)C1c1cc2c(cc1Br)OCO2 (stereo not drawn) | 12.2
C=C(C)CSc1nnc(-c2cccc(Cl)c2)n1N | 10.2
Cc1ccc(NC(=O)NCCN2CCCCC2)cc1Cl | -8.19
CCOC(=O)C1CCN(C(=O)Cn2cc(C(=O)C3CC3)c3ccccc32)CC1 | 13.4
S=C(NCC1CCCO1)NC12CC3CC(CC(C3)C1)C2 (stereo not drawn) | 14.6
CC1=C(C#N)C(c2cn(-c3ccccc3)nc2-c2cccs2)C(C#N)=C(C)N1 | 7.98
CN(c1ccccc1)S(=O)(=O)c1cccc(NC(=O)CSc2ncn[nH]2)c1 | -8.15
O=C(C[n+]1ccccn1)c1ccccc1.[Br-] | 18.1
C=CCOc1ccc(C2/C(=C(\O)c3ccc4c(c3)OCCO4)C(=O)C(=O)N2CCCN2CCOCC2)cc1 (stereo not drawn) | 8.67
O=C(NCCCn1ccnc1)c1cccnc1 | 4.84
Cc1cc(C)nc(SCc2ccc(C(=O)N/N=C/c3cccnc3)cc2)n1 | -28.6
CC(C)(C(=O)O)n1cncn1.Cl | 35.4
COc1cc(C(=S)N2CCCC2)ccc1OCc1ccc(C)cc1 | 13.7
COc1ccc(/C=N/NC(=O)c2ccco2)cc1Cn1nc(C)cc1C | 8.22
CC(C)(C)N(C=C(Cl)Cl)C(=O)NC1CCCCC1 | 9.86
C#CCOCCOCCOCCNc1nc(N2CCN(C(=O)[C@H](CCC(=O)O)n3cc(C(N)Cc4ccc(O)cc4)nn3)CC2)nc(N2CCN(C(=O)[C@H](CCC(=O)O)n3cc(C(N)Cc4ccc(O)cc4)nn3)CC2)n1.Cl (stereo partly drawn) | 12.3
O=C(OCC(=O)N1CCc2ccccc21)c1ccc([N+](=O)[O-])cc1 | 14.6
CCOc1ccc(N2CC(C(=O)N3CC(C)OC(C)C3)CC2=O)cc1 (stereo not drawn) | 15.2
CC1Cc2ccccc2N1C(=O)CN1C(=O)COc2ccccc21 (stereo not drawn) | 14.6
CN[C@@H]1[C@H](O)[C@H](NC)[C@H]2O[C@@]3(O)C(=O)C[C@@H](C)O[C@H]3O[C@@H]2[C@H]1O.Cl.O | 11.3
CCCOc1ccccc1N/C(=N\S(=O)(=O)c1ccc(C)cc1)Nc1nc(C)cc(C)n1 | 10.8
O=C(c1ccc(F)cc1)N1CCCC(c2nc(-c3ccncc3)no2)C1 (stereo not drawn) | -35.5
O=C(COC(=O)c1cccc(S(=O)(=O)N2CCOCC2)c1)NCCc1ccccc1 | 0.565
Cn1nc(-c2ccc(Cl)cc2)c2cc(C(=O)NCCCN3CCOCC3)sc21 | -2.67
